Test systems include WM115; WM1716; WM1745; WM3526; WM3619; WM451Lu.
Experiment in all cases: cell count relative to DMSO control; melanoma cells; higher = more viable cells
What all share (settings): library dose: low library concentration; 72 h

Structures are written as SMILES. The list shows a part of the results. Repeats are few or missing, and single values can be far off.
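Also: cell number obtained by counting DAPI-stained nuclei in high-throughput microscope images with image analysis software, screen run in 1,536-well plates.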

As to `CC(C)C[C@H](NC(=O)[C@H](Cc1ccccc1)NC(=O)c1cnccn1)B(O)O` [Bortezomib] + COc1cc2ncnc(Nc3ccc(Oc4ccccc4)cc3)c2cc1OC [SrcI1] (first compound 0.001 µM, partner dose 2 µM), the cell count with WM115 was 124%; in the assay on WM1716 it was 23.3%; with WM1745, 29.6%; in the assay with WM3526, 76.7%; in the assay on WM3619, 6.26%; in the assay with WM451Lu it was 91.9%.
On to `Cc1cc(Nc2cc(N3CCN(C)CC3)nc(/C=C/c3ccccc3)n2)n[nH]1` + O=C(CCCCCCC(=O)Nc1ccccc1)NO [vorinostat] (first compound 0.04 µM, partner dose 0.08 µM), for which the cell count with WM115 stood at 95%; with WM1716 it was 99%; in the assay on WM1745, 102%; in the assay on WM3526 it was 83.8%; in the assay with WM3619 it was 96.8%; with WM451Lu it was 97.7%.
Take `CC(C)C[C@H](NC(=O)[C@H](Cc1ccccc1)NC(=O)c1cnccn1)B(O)O` [Bortezomib] + Cc1cc([N+](=O)[O-])ccc1NS(=O)(=O)c1cc(Cl)ccc1Cl [FH535] (first compound 0.001 µM, partner dose 1 µM): the cell count came out at 88.1% with WM115; 28.6% with WM1716; 62.2% in the assay on WM1745; 78.4% with WM3526; 16% in the assay with WM3619; 113% in the assay on WM451Lu.
For the compound `Cn1c(=O)n(-c2ccc(C(C)(C)C#N)cc2)c2c3cc(-c4cnc5ccccc5c4)ccc3ncc21` + C#Cc1cccc(Nc2ncnc3cc(OCCOC)c(OCCOC)cc23)c1 [erlotinib] (first compound 0.004 µM, partner dose 0.8 µM), the cell count is 91.9% in the assay on WM115; 82.2% in the assay with WM1716; 82.8% with WM1745; 71% in the assay on WM3526; 87.8% in the assay on WM3619; 84.3% with WM451Lu.
`Cc1cc(Nc2cc(N3CCN(C)CC3)nc(/C=C/c3ccccc3)n2)n[nH]1` + C[C@]1(c2nc3c(C(N)=O)cccc3[nH]2)CCCN1 [Veliparib] (first compound 0.04 µM, partner dose 1.4 µM): the cell count was 97.1% in the assay with WM115; 92% in the assay on WM1716; 108% in the assay with WM1745; 101% in the assay on WM3526; 123% in the assay with WM3619; 114% in the assay on WM451Lu.

The values above are taken from the supplement of paper PMC4604168 (melanoma cell lines).
